The campaign covered roughly 220,000 compounds. About 2,300 (1%) were called active. The shares of active, inactive and inconclusive entries below differ from those in the screen. The call rests on the fitted dose curve; in most records, active means well fitted inhibition curve with a large enough effect; inconclusive means small, poorly fitted or top-dose-only effect, or effect the other way; inactive means no such curve, though single readings can be large or run the other way. Potencies of inconclusive entries are left out as doubtful fits.
Each compound was assayed against Neuropeptide S receptor (Homo sapiens) (UniProt Q6W5P4) (assay: qHTS Assay for Antagonists of the Neuropeptide S Receptor: cAMP Signal Transduction). Conditions: CHO-NPSR cells, cAMP TR-FRET, antagonist mode; series mostly up to 38.3 µM.
Sequence of UniProt Q6W5P4 (Q6W5P4 whole entry, looked up): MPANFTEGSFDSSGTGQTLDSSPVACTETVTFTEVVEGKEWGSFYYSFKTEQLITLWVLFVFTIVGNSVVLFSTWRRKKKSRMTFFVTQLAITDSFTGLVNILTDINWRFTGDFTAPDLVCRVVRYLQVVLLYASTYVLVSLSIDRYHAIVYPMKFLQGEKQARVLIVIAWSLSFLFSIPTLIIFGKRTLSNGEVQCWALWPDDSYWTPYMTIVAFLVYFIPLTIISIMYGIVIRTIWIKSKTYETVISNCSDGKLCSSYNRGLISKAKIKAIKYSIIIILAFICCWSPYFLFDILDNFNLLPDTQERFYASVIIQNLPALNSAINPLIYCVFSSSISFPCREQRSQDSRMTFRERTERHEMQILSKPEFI
`COc1ccc(OC)c(-c2cc(-c3cccnc3)nc(N)c2C#N)c1` was tested, and the Potency was inconclusive [inhibitor, single point].
In the case of `Cc1cc(N2CCCC2)nc(-c2ccccc2O)n1`, the Potency was inconclusive [inhibitor, partial curve].
In the case of `COc1cc(NC(=O)c2ccccc2)cc(OC)c1`, the Potency was “inactive”.
With `CC1=CC(C)(C)Nc2ccc(OC(=O)CN3C(=O)C4CCCCC4C3=O)cc21` (centres undefined) the Potency was inconclusive [inhibitor, single point].
`CCCCN(CCCC)S(=O)(=O)c1ccc2oc(C(=O)N3CCOCC3)c(C)c2c1` was tested, and the Potency was inconclusive [inhibitor, single point].
`CC(/C=N/n1c(C2CCCCC2)n[nH]c1=S)=C\c1ccccc1` was tested, and the Potency was inconclusive [inhibitor, single point].
For `CCC(=O)O[C@]1(C(=O)CCl)[C@@H](C)C[C@H]2[C@@H]3CCC4=CC(=O)C=C[C@]4(C)[C@@]3(F)[C@@H](O)C[C@@]21C`, the Potency was active: 2 µM.
With `CC(C)C[C@H](NC(=O)c1[nH]cnc1C(=O)Nc1ccc(Cl)cc1)C(=O)OC(C)(C)C` the Potency was inconclusive [inhibitor, single point].
`O=C1C(c2ccc(F)cc2)N(CC2COc3ccccc3O2)C(=O)CN1C1CCCCC1` (centres undefined) was tested, and the Potency was inconclusive [inhibitor, partial curve].
For `OCCNCc1cc(Br)ccc1OCc1ccc(Cl)cc1`, the Potency was inconclusive [inhibitor, single point].
In the case of `O=C(CN(Cc1ccccc1)S(=O)(=O)c1ccc(F)cc1)NCCC1=CCCCC1`, the Potency was inconclusive [inhibitor, single point].
For `CCCN(C(=O)c1ccco1)c1nnc(-c2cccc(C)c2)s1`, the Potency was inconclusive [activator, single point].
In the case of `CN1C(=O)C(CCC(=O)O)NC1=S` (centres undefined), the Potency was inconclusive [activator, single point].
For `COc1cc(C)nc(Nc2nc(C)c(C(C)=O)s2)n1`, the Potency was inconclusive [activator, partial curve].
For `O=C(CC(CC(=O)c1ccccc1)C(=O)O)c1ccccc1`, the Potency was “inactive”.
`Fc1ccc(-c2csc(NC3=NCCC3)n2)cc1` was tested, and the Potency was “inactive”.
For `COc1ccc(-c2c(C(F)(F)F)oc3cc(OCC(=O)Nc4ccccc4C(F)(F)F)ccc3c2=O)cc1OC`, the Potency was inconclusive [inhibitor, single point].
In the case of `CC(C)(C)n1nnnc1C(c1cccnc1)N1CCN(C(=O)c2ccco2)CC1` (centres undefined), the Potency was inconclusive [activator, full curve, poor fit].
In the case of `COc1cc(/C=N/NC(=S)Nc2cccc(Cl)c2C)ccc1OCC(=O)N1CC(C)OC(C)C1` (centres undefined), the Potency was “inactive”.
In the case of `Nc1ccc(N2CCCCCC2)cc1`, the Potency was inconclusive [inhibitor, single point].
For `N=C1SC(c2ccccc2)C(=O)N1c1ncc(Cc2ccccc2Cl)s1` (centres undefined), the Potency was inconclusive [inhibitor, single point].
In the case of `N#CC(C(=O)OC1CCCCC1)c1nc2ccccc2nc1N1CCOCC1` (centres undefined), the Potency was inconclusive [inhibitor, partial curve, poor fit].
`c1ccc(-c2ccc(C3=Nn4c(Cn5nnc6ccccc65)nnc4SC3)cc2)cc1` was tested, and the Potency was inconclusive [inhibitor, partial curve].
With `Cc1ccc(C)c(-c2nnc(OCC(=O)Nc3cc(C)on3)c3ccccc23)c1` the Potency was inconclusive [inhibitor, single point].
In the case of `Cc1sc(NC(=O)c2ccccc2)c(C(c2ccc(Cl)cc2)N2CCN(CCO)CC2)c1C` (centres undefined), the Potency was inconclusive [inhibitor, single point].
With `Nc1ncnc2c1nc(Br)n2C1O[C@H]2COP(=O)(O)O[C@@H]2C1O` (some centres undefined) the Potency was inconclusive [activator, partial curve].
With `O=C(CCNS(=O)(=O)c1cccs1)NCc1ccco1` the Potency was “inactive”.
For `Fc1ccc(C(c2nnnn2C2CCCC2)N2CCc3ccccc32)cc1` (centres undefined), the Potency was inconclusive [inhibitor, single point].
With `C=C(C)COc1ccc(-c2nc(N)ncc2Oc2ccccc2OC)c(O)c1` the Potency was inconclusive [inhibitor, single point].
For `O=C(NCCc1ccccn1)c1cc(C(=O)C2CCCCC2)c[nH]1`, the Potency was inconclusive [inhibitor, single point].
With `NS(=O)(=O)c1ccc(O)c(NC(=O)c2ccc([N+](=O)[O-])o2)c1` the Potency was “inactive”.
`CC(=O)Nc1ccc(-c2csc(NC(C)c3ccccc3)n2)cc1` (centres undefined) was tested, and the Potency was “inactive”.
For `Cc1ccc(C(=O)c2oc3ccccc3c2NC(=O)c2cc(-c3cc(C)ccc3O)n[nH]2)cc1`, the Potency was inconclusive [inhibitor, single point].
In the case of `O=C(Cn1cc(/C=N/NC(=O)c2cccc(C(F)(F)F)c2)c2ccccc21)Nc1ccc(F)cc1`, the Potency was inconclusive [inhibitor, single point].
`Nn1c(SCC(=O)NC2CCCCC2)nnc1-c1ccc(Cl)cc1` was tested, and the Potency was “inactive”.
`O=C(COc1ncnc2c(Cl)cc(Cl)cc12)N1CCN(S(=O)(=O)c2ccccc2)CC1` was tested, and the Potency was inconclusive [activator, single point].
For `CCOC(=O)c1c(C)n(-c2ccc(C)cc2)c2ccc(OCC(O)CNCC3CCCO3)cc12` (centres undefined), the Potency was inconclusive [inhibitor, single point].
With `COc1ccc(NC2=C(Cl)C(=O)N(c3ccccc3)C2=O)c(OC)c1` the Potency was “inactive”.
`CCOC(=O)c1cc(-c2ccccc2)n(CCC(=O)O)c1C` was tested, and the Potency was inconclusive [inhibitor, single point].
In the case of `O=C(NCCN1C(=O)S/C(=C/c2ccccc2)C1=O)C1CCCN1C(=O)c1cccs1` (centres undefined), the Potency was “inactive”.
With `CCOC(=O)c1sc(=S)n(-c2ccc(Cl)cc2)c1SC` the Potency was inconclusive [inhibitor, single point].
`O=c1[nH]ncn1-c1cccc(C(F)(F)F)c1` was tested, and the Potency was “inactive”.
In the case of `Cc1ccc(-n2cc[nH]c2=S)c(C)c1`, the Potency was “inactive”.
For `COC(=O)CSc1nc(Cc2ccccc2)nc2ccccc12`, the Potency was inconclusive [activator, partial curve].
Further: nearly all actives have a fitted effect of over 50% in size.
Potency means the concentration at half of the fitted maximal effect; tags describe the fitted curve by direction and shape.
